“And” between values parts separate entries of the source, which are not always exact repeats. Equal entries are not always repeated. Screen size: about 2,000 compounds; about 45 (2%) were called active.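 How the source made its calls: active means inhibition above the mean of all tested compounds plus 3 SD (cut at about 49% in these data); inactive means the rest.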 This is one part of the list.
What follows are molecules tested against Perilipin-5 (Homo sapiens) + 1-acylglycerol-3-phosphate O-acyltransferase ABHD5 (Homo sapiens) (UniProt Q00G26+Q8WTS1) (assay: ABHD5-PLIN5 interaction inhibitors, pilot screen, cell lysate, split luciferase complementation, luminescence, NIH validation set (AID 493035;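 further: 0% = DMSO only wells while the 100% control is not stated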)). Settings: split G. princeps luciferase complementation, lysates, 4 h; at 7.9 µM, active compounds read high.
Sequence of UniProt Q00G26 (Q00G26 whole entry, looked up): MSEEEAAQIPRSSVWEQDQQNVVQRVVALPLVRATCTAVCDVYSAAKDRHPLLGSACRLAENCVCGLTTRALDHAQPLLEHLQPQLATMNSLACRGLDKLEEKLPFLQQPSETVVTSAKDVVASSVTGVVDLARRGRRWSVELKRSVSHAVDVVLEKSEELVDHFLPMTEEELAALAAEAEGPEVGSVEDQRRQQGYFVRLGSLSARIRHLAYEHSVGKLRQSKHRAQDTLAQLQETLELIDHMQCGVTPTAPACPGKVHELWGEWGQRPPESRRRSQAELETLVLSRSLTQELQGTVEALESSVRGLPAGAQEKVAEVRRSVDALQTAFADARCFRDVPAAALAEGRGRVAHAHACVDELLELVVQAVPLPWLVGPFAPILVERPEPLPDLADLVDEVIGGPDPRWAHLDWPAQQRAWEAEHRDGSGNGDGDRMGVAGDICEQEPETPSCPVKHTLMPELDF
Sequence of UniProt Q00G26 (Q8WTS1 whole entry, looked up): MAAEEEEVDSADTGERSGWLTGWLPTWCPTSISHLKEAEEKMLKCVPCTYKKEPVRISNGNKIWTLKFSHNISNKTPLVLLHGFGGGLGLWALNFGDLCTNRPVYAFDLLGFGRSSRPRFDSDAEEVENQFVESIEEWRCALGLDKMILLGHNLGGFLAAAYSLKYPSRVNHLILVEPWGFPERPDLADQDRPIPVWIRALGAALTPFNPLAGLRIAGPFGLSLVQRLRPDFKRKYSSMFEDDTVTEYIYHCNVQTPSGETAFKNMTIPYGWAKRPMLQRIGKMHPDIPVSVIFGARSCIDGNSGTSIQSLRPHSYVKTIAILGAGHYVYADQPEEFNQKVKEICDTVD

Structure (SMILES)	inhibition
Cc1cc(C)c(NC(=O)NC(=O)C(Cl)(Cl)Cl)c(C)c1	inactive: -18.5%
N=c1ccn(CC(=O)NC(N)=O)c2ccccc12	inactive: 3.61%
OC(CCN1CCCCC1)(c1ccccc1)c1ccccc1	inactive: 2.21%
CC(=O)[C@H]1[C@H](C#N)C[C@H]2[C@@H]3CC=C4C[C@@H](O)CC[C@]4(C)[C@H]3CC[C@@]21C	inactive: 10.9%
COc1ccc(C(CC(=O)N2CCOCC2)C(C)C)cc1 (stereo unspecified)	inactive: 0.73%
COc1c2occc2c(OC)c2c(=O)cc(C(F)(F)C(F)(F)F)oc12	inactive: -2.44%
CCOc1ccc2[nH]c3c(=O)n(CCc4ccc(OC)cc4)cnc3c2c1	inactive: -8.8%
Cc1ccccc1C(=O)NNc1ncnc2c1cnn2C	inactive: -9.85%
COc1ccc2[nH]cc(C3N4CC5(C)CN3CC(C)(C4)C5=O)c2c1 (stereo unspecified)	inactive: -6.17%
C=CCc1ccc(OCC(O)COc2ccc(CC=C)cc2OC)c(OC)c1	inactive: -8.22%
COc1ccc(-c2[nH]ncc2CN(C)C(C)c2ccon2)c(OC)c1 (stereo unspecified)	inactive: -1.59%
Cc1ncoc1C(=O)N1CCCC(C(=O)c2ccc(-c3ccccc3)c(F)c2)C1 (stereo unspecified)	inactive: 1.46%
CCSC(=O)CCCCCCCCCCCO	inactive: -8.36%
C[C@H](CCC(=O)O)[C@H]1CC[C@H]2[C@@H]3C(=O)C[C@@H]4CC(=O)CC[C@]4(C)[C@H]3CC(=O)[C@]12C	inactive: -1.75%
CCOc1ccc(C(=O)NC(C)C2COc3ccccc3O2)cc1 (stereo unspecified)	inactive: 5.34%
Cc1nc2sccn2c(=O)c1CCN1CCC(=C(c2ccc(F)cc2)c2ccc(F)cc2)CC1	inactive: 3.16%
CCOC(=O)C1=C(C)NC(C)=C(C(=O)OC)C1c1cccc(Cl)c1Cl (stereo unspecified)	inactive: 1.49%
Cc1ccc2[nH]c3c(c2c1)CCNC3=O	inactive: -3.14%
CC1(C)CC(=O)C2=C(C1)c1c(ccc3ccccc13)NC2c1ccco1 (stereo unspecified)	inactive: 8.52%
O=C(O)CCC(=O)c1ccc(-c2ccccc2)cc1	inactive: -14.3%
O=C1c2cccc3cccc(c23)C(=O)N1c1ccccn1	inactive: 0.22%

Structure (SMILES)	inhibition
CCN(CC)Cc1c[nH]c2c(C(=O)OC)cccc12	inactive: -10.3%
COc1ccc(/C=C/C(=O)c2cc3cccc(OC)c3oc2=O)cc1	active: 69.5%
CN1CCN2c3ccccc3Cc3ccccc3C2C1 (stereo unspecified)	inactive: -7.6%
O=C(O)c1cnccn1	inactive: 4.21%
Cc1ccc(/C=N/NC(=O)C2(C)CC2(Br)Br)cc1 (stereo unspecified)	inactive: 3.81%
O=[N+]([O-])c1ccc(O)c2ncccc12	inactive: 6.68%
COc1ccc(C2OC[C@H]3O[C@H](O)[C@H](NC(C)=O)[C@@H](O)[C@@H]3O2)cc1 (stereo partly specified)	inactive: -13.3%
N=c1nc(N2CCCCC2)cc(N)n1O	inactive: 7.56%
CC(=O)Oc1ccc(C(c2ccc(OC(C)=O)cc2)c2ccccn2)cc1	inactive: 7.59%
CCC1(c2ccccc2)NC(=S)N(c2ccc(C)c(C)c2)N1 (stereo unspecified)	inactive: 20.9%
Cc1nc2ccccc2n1CC(O)Cn1c2ccccc2c2ccccc21 (stereo unspecified)	inactive: 2.08%
O=C(O)CCCCCN=C1CCc2ccccc2N1	inactive: -9.11%
Cc1ccc2c(CN3CCN(Cc4ccc5c(c4)OCO5)CC3)cc(=O)oc2c1C	inactive: 17.1%
COC(=O)C1=NN(C(=O)c2cccc(Br)c2)C(O)(c2ccc(Cl)cc2)C1 (stereo unspecified)	inactive: 0.8%
CC(NCCc1ccc(O)cc1)C(O)c1ccc(O)cc1 (stereo unspecified)	inactive: -1.38%
CC(=O)OCC1OC(n2ccc(=O)[nH]c2=O)C(O)C1O (stereo unspecified)	inactive: -2.69%
COc1cccc(CC(=O)NCC2COc3ccccc3O2)c1OC (stereo unspecified)	inactive: 9.79%
CN(C)CCOC(=O)C(c1ccccc1)C1(O)CCCC1 (stereo unspecified)	inactive: -2.98%
C[C@]12CCC3C(CC=C4C[C@@H](O)CC[C@@]43C)C1CCC2[C@]1(C)CCC(=O)O1 (stereo partly specified)	inactive: -1.05%
Nc1[nH]c(=O)ncc1F	inactive: 1.19%
CC(C)(C)OC(=O)N1CC(O)CC1C(=O)OCC(=O)c1ccc(Cl)cc1 (stereo unspecified)	inactive: -4.92%

Structure (SMILES)	inhibition
COc1ccc(/C=C\C(=O)c2c(O)ccc3c(C)cc(=O)oc23)cc1OC	active: 59.1%
CCOC(=O)c1oc2cc(OCC(N)=O)ccc2c(=O)c1-c1ccc(OC)c(OC)c1	inactive: -3.09%
S=C(NCCOCCOCCNC(=S)Nc1ccccc1)Nc1ccccc1	inactive: 4.01%
Nc1ccc(C(=O)O)c(O)c1	inactive: -11.3% and inactive: -10.4%
O=C(O)c1ccccc1Nc1cccc(C(F)(F)F)c1	inactive: 4.65%
O=C(NCCc1nc2ccccc2[nH]1)c1cccc(Br)c1	inactive: -3.16%
Cc1ccc2c(c1)c(C)cc(=O)n2CCC(=O)O	inactive: -14.4%
CC(C)(C)NCC(O)COc1ccccc1C(=O)CCc1ccccc1 (stereo unspecified)	inactive: -7.08%
OC(CCN1CCCC1)(c1ccccc1)C1CCCCC1 (stereo unspecified)	inactive: -8.34%
COCCNC(=O)CSc1ccc(Cl)cc1	inactive: -12.6%
CC(C)(C)c1ccc(/C=C/C(=O)N2CCCCC2)cc1	inactive: -11.6%
NS(=O)(=O)c1cc2c(cc1Cl)NC(C1C[C@H]3C=C[C@@H]1C3)NS2(=O)=O (stereo partly specified)	inactive: 4.08%
C[C@H](NC(=O)C1(c2ccccc2)CCN(C(=O)[C@H]2CSCN2C(=O)OC(C)(C)C)CC1)C(=O)O	inactive: 7.39%
COc1cc(CO)ccc1OCc1nnnn1-c1ccc(C)cc1	inactive: -2.14%
CCCCOc1ccc(C(=O)CCN2CCCCC2)cc1	inactive: 29.9%
COc1ccc(/C=C(/C#N)c2cccnc2)cc1OC	inactive: -1.08%
Cc1c(CCOC(=O)CC23CC4CC(CC(C)(C4)C2)C3)sc[n+]1Cc1ccc([N+](=O)[O-])cc1	inactive: -7.85%
CC(=O)OCC(=O)[C@@]1(O)CC[C@H]2[C@@H]3CCC4=CC(=O)C=C[C@]4(C)[C@H]3[C@@H](O)C[C@@]21C	inactive: 3.85%
COC(=O)c1ccc(NC(=O)c2ccccc2SC)cc1	inactive: 6.35%

— PubChem BioAssay AID493035 (The Scripps Research Institute Molecular Screening Center, 2011)
